The text below walks through data of patent publication US6203824A (priority 1992, dated 2001).

For the data set the following is noted: based on TLV values.

Molecules are shown by their SMILES.

For the compound `CBr` [Methyl bromide, methyl bromide], the “Relative ranking, mammalian toxicity” value stood at 3.

As for `P` [Phosphine, phosphine], the “Relative ranking, mammalian toxicity” value worked out at 2.

Consider `O=C=S` [carbonyl sulphide], for which the “Relative ranking, mammalian toxicity” value was found to be 1.
